The whole screen tested about 310,000 compounds, of which about 2,200 (0.71%) showed an effect of 50% or more. Effects have a minus sign here. Some of the results follow.
Target: human ether-à-go-go-related gene (hERG) potassium channel (human, UniProt Q12809)
Experiment: primary screen, population patch clamp on CHO cells stably expressing hERG

Sequence of human ether-à-go-go-related gene (hERG) potassium channel (Q12809 whole entry, looked up): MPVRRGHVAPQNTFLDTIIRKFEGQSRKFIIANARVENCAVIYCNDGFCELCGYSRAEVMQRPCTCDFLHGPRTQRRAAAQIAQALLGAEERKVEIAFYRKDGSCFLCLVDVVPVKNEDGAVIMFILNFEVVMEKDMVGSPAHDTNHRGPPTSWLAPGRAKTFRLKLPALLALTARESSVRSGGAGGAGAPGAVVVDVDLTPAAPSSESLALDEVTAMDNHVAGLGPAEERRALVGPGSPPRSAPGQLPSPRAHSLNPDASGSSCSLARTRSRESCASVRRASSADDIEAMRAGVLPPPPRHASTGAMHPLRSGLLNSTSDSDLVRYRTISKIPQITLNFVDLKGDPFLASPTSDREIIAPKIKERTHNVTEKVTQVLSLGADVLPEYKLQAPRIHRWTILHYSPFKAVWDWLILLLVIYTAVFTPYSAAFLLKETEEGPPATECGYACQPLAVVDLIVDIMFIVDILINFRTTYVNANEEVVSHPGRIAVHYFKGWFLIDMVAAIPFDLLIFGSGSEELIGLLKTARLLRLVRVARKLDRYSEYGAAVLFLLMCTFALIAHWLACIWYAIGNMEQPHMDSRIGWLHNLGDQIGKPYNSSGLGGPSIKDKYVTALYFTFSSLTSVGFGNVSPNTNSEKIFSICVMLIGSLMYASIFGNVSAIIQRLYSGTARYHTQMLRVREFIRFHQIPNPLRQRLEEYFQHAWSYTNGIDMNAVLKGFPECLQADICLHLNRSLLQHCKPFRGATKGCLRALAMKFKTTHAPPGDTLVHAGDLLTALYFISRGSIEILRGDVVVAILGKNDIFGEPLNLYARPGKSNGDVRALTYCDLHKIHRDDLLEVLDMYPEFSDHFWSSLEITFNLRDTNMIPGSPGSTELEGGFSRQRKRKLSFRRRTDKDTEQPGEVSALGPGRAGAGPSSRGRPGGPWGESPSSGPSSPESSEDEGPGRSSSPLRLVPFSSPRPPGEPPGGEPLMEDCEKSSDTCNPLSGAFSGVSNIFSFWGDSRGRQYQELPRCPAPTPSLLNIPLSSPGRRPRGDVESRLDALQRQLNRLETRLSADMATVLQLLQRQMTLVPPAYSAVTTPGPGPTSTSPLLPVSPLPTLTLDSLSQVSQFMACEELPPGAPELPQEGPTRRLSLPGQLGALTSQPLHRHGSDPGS

| SMILES | hERG current change (%, negative = inhibition) at 1uM |
| --- | --- |
| COc1ccc(CCNCc2cccn2C)cc1.Cl | 5.85% |
| C/C(=N\NC(=O)c1ccc(Cl)cc1)c1ccc(N2CCOCC2)cc1 | 12.6% |
| O=C(C1CC1)N1N=C(c2ccc(Br)cc2)CC1(O)C(F)(F)F (stereo not shown) | 20.7% |
| Cc1cccc(OCCCCc2c(C)n[nH]c2C)c1C | 12.1% |
| CN(CC(=O)Nc1cccc(C(F)(F)F)c1)Cc1ccccc1 | 4.78% |
| COc1cccc(/C=C2/NC(=O)N(CC(=O)Nc3ccc(C)cc3)C2=O)c1OCc1cccc(C(=O)O)c1 | 18% |
| COc1ccc(NC(=O)c2cc(Cl)ccc2Cl)c([N+](=O)[O-])c1 | 7.61% |
| CC(C)[C@H](N[C@@H](C)c1ccccc1)c1c(O)ccc2ccccc12 | 15.2% |
| COc1ccc2[nH]c(-c3cccc(F)c3)cc(=O)c2c1 | 18.5% |
| CCn1cc(C(=O)NCC2CCCO2)c(=O)c2cc(S(=O)(=O)N3CCC(C)CC3)ccc21 (stereo not shown) | -6.5% |
| COc1ccccc1NC(=O)Cn1cncc1-c1ccc([N+](=O)[O-])cc1 | 13.7% |
| CCOC(=O)c1sc(S(C)(=O)=O)c2c1CC(C)(C)C/C2=N/O | 8.27% |
| C/C(=C(/NC(=O)c1ccccc1)C(=O)O)c1ccco1 | 9.74% |
| CC(=O)c1ccc(NC(=O)COC(=O)CCc2ccc(S(=O)(=O)N3CCOCC3)cc2)cc1 | 7.7% |
| CC(C)CN1CCN(Cc2c(F)cccc2Cl)CC1CCO (stereo not shown) | 1.5% |
| COc1ccc(C(=O)NC2CCN(C(=S)Nc3ccccc3)CC2)cc1 | 9.91% |
| COC(=O)c1c(C)[nH]c(C(=O)CSc2ccc(Cl)cc2)c1C | 13.4% |
| COc1ccc(NC(=O)c2ccc3c(c2)C(=O)N(CC2CCCO2)C3=O)c(OC)c1 (stereo not shown) | 8.53% |
| Cc1ccc(CSCC(=O)N2CCOCC2)cc1 | 6.55% |
| O=[N+]([O-])c1ccc(-c2ccc(/C=N/O)o2)cc1 | 10.6% |
| CCc1ccc(CNC(=O)CCc2nc(-c3cccs3)no2)cc1 | -0.667% |
| Cc1ccnc(NS(=O)(=O)c2ccc(NC(=O)c3cncc(Br)c3)cc2)n1 | 7.45% |

| SMILES | hERG current change (%, negative = inhibition) at 1uM |
| --- | --- |
| [Br-].c1cc[n+](CCCC[n+]2ccccc2)cc1 | 14.8% |
| CN1CCN(c2ccc([N+](=O)[O-])c3cccnc23)CC1 | -3.89% |
| CC(Cc1ccccc1)NC(=O)Cc1ccc([N+](=O)[O-])cc1 (stereo not shown) | -0.434% |
| O=C(NC(=S)Nc1ccc(CN2CCCCC2)cc1)c1ccco1 | -7.26% |
| CCOC(=O)c1sc(Nc2nc(C)cc(C)n2)nc1C | 10.9% |
| COc1ccc(N2C(=O)CSC23C(=O)N(CC(=O)NC2CCCC2)c2ccccc23)cc1 (stereo not shown) | 12.5% |
| COc1ccccc1N1CCN(C(=O)NCc2ccc(Cl)cc2)CC1 | -0.463% |
| COc1ccc(-n2c(N)cc(=O)nc2SCC(=O)N2CCN(c3ccccc3)CC2)cc1 | 9.29% |
| CCc1ccc(-c2nn(Cc3ccccc3)cc2C=O)cc1 | 3.12% |
| CCc1ccc(NC(=O)Cn2cnc([N+](=O)[O-])c2)cc1 | 5.54% |
| O=C(Nc1ccccc1C(=O)O)c1ccccc1 | 8.98% |
| Cn1c(CSc2ncccn2)nnc1SCC(=O)N1CCCCC1 | 17.7% |
| COc1ccc(C(=O)Nn2c(C)nnc2-n2nc(C)cc2C)cc1OC | 16.8% |
| COc1ccc(NS(=O)(=O)c2ccc(NC(=O)C(C)(C(F)(F)F)C(F)(F)F)cc2)nn1 | 9.2% |
| Oc1ccc(-c2cn3cc(C(F)(F)F)ccc3n2)cc1 | 0.186% |
| O=C(CSc1ncn(-c2ccccc2)n1)N1CCc2ccccc21 | 1.39% |
| O=C(CNC(=O)c1ccc(OC(F)F)cc1)Nc1cccc(S(=O)(=O)N2CCCC2)c1 | -4.96% |
| O=C(COC(=O)c1cnccn1)N=c1sccn1Cc1ccccc1Cl | 12.8% |
| CC1CCN(CC(=O)Nc2cccc(Cl)c2)CC1 | -0.572% |
| COc1ccc(/C=C2\CCc3ccccc3C2=O)c(OC)c1OC | 15.7% |
| CCCN(C(=O)C(=O)Nc1ccc2nc3n(c(=O)c2c1)CCCCC3)c1ccc(OCC)cc1 | 9.7% |
| O=C(CCN1CCC(c2ccc(Cl)s2)=N1)c1ccc(Cl)s1 | 10.9% |

| SMILES | hERG current change (%, negative = inhibition) at 1uM |
| --- | --- |
| C/C(N)=C(/C#N)C(=O)COc1ncnc2ccccc12 | 7.75% |
| O=c1c2cc(NC(=S)NC3CCCC3)ccc2nc2n1CCCCC2 | 2.82% |
| Cc1cc(NC(=O)CCC(=O)N(Cc2ccc(F)cc2)C(C(=O)NC2CCCC2)c2ccco2)no1 (stereo not shown) | 4.79% |
| CCCN1CCN(C(=O)C2CCN(c3nnc(C)c4c(C)n(-c5ccc(C)cc5)nc34)CC2)CC1 | 8.84% |
| CC(Sc1nnnn1-c1ccccc1)C(=O)Nc1ccc(N2CCN(C)CC2)cc1 (stereo not shown) | 7.21% |
| COc1cccc(N2CCc3c(C)nc4ccc(Cl)cc4c32)c1 | -48.5% |
| COc1ccc(CN2CC(C(=O)NCCCN3CCCCC3)CC2=O)cc1 (stereo not shown) | 12.8% |
| CC(C)(C)CN1CCN(Cc2nc(-c3ccc(F)cc3)cs2)CC1CCO (stereo not shown) | -27.3% |
| O=C(Nc1ccccc1Cl)c1ccc(=O)[nH]n1 | 11.2% |
| COc1ccc(C(=O)/C=C/c2ccc(O)cc2)cc1 | -0.784% |
| Cc1ccc(C)c(-n2cc(CNC(C)Cn3cncn3)c(-c3ccccc3)n2)c1 (stereo not shown) | -0.15% |
| Cc1cccc(Cc2nnc(CCC(=O)N(C)C3CCOC3)o2)c1 (stereo not shown) | 17% |
| Cc1ccc(S(=O)(=O)NNC(=O)NC23CC4CC(CC(C4)C2)C3)cc1 | 12.9% |
| O=C(Nc1ccccc1)N1CCSc2ccccc21 | -9.04% |
| COc1ccc(S(=O)(=O)N(C)C)cc1NC(=O)Cc1cccs1 | 4.34% |
| CCOC(=O)C1=C(O)/C(=C\c2sccc2C)N=C1C | 20.8% |
| Cc1ccccc1NC(=O)c1ccc(Nc2c([N+](=O)[O-])cc([N+](=O)[O-])c3ccccc23)cc1 | 19% |
| Cc1c(C)n2c(SCC(=O)NCc3ccc4c(c3)OCO4)nnc2[nH]c1=O | 11.6% |
| N/C(COc1ccccc1)=N\NS(=O)(=O)c1ccccc1 | 9.58% |
| NC1=NC(=O)/C(=C\c2ccsc2)S1 | 12% |
| CC(C)=Cc1oc2ccc([N+](=O)[O-])cc2c1N1CC(C)OC(C)C1 (stereo not shown) | 10.8% |
| Cc1cc(C)c(C#N)c(SC(F)F)n1 | 4.81% |

| SMILES | hERG current change (%, negative = inhibition) at 1uM |
| --- | --- |
| NS(=O)(=O)c1ccc(CNC(=O)CCSCCC(=O)NCc2ccc(S(N)(=O)=O)cc2)cc1 | 12.1% |
| O=C(NCc1ccc(F)cc1)C1CCC(CNc2c(N3CCCCC3)c(=O)c2=O)CC1 (stereo not shown) | 12.9% |
| CC(=O)O[C@H]1C(=O)[C@]2(C)[C@H]([C@H](OC(=O)c3ccccc3)[C@]3(O)C[C@H](OC(=O)[C@H](O)[C@@H](NC(=O)c4ccccc4)c4ccccc4)C(C)=C1C3(C)C)[C@]1(OC(C)=O)CO[C@@H]1C[C@@H]2O | 8.41% |
| COc1ccc(C(=O)c2cc([N+](=O)[O-])ccc2N2CCN(C)CC2)cc1 | -25.5% |
| CCOC(=O)N1CCN(C(=O)CSCC(=O)Nc2nc(-c3cccs3)cs2)CC1 | -8.58% |
| COc1cc(C(=O)OCC(=O)NC(=O)C2CCCCC2)ccc1OC(F)F | 14.2% |
| COc1ccc(NC(=S)Nc2ccccc2)c(OC)c1 | 10.5% |
| COc1cccc(NC(=O)c2ccc(-n3cnnn3)cc2)c1 | 12% |
| Cc1cccn2c(NC(=O)c3cccs3)c(-c3ccccc3)nc12 | 8.31% |
| CN(C)CCCOc1nn(Cc2ccccc2)c2ccccc12.Cl | -1.26% |
| CSc1nc(Nc2ccc(Cl)cc2)c(C#N)c(=O)[nH]1 | 14.3% |
| COc1ccc(C(=O)Nc2cccc(/C=C/c3nc4ccccc4c(=O)[nH]3)c2)cc1 | -1.15% |
| CC(C)CC(NC(N)=O)C(=O)Nc1ccc2c(c1)OCO2 (stereo not shown) | 14.8% |
| O=C(NC1CCCC1)C1CCC(=O)N1C1CCCC1 (stereo not shown) | 15.9% |
| Cc1ccc2c(c1)C1(C)C(C(C)(C)N2C=O)C1(Cl)Cl (stereo not shown) | 13% |
| CCCCC(c1nnnn1C1CCCC1)N1CCN(C2CCCCC2)CC1 (stereo not shown) | -63.1% |
| COc1ccc(S(N)(=O)=O)cc1C(=O)OCCCOc1ccc(F)cc1 | -1.96% |
| Nc1nc2c(s1)C(=O)CC(c1ccccc1)C2 (stereo not shown) | 9.16% |
| CCCCC(=O)Nc1ccccc1C(=O)OCC(=O)c1ccc2c(c1)OCCO2 | 14.3% |
| CCn1nc(NC(=O)c2cccnc2)c2cc3cccc(C)c3nc21 | 3.87% |
| Cn1cccc1-c1cc(C(=O)N/N=C/c2ccc([N+](=O)[O-])cc2)[nH]n1 | 9.28% |
| Cc1ccc(COc2coc(CN3CCN(C(=O)c4ccco4)CC3)cc2=O)cc1 | -16.4% |

— publication PMC4336329 (PLoS ONE, 2015)
